± gives the standard deviation of the averaged measurements. The list shows a part of the results.

The assay has as its system PfAP2-LT AP2 domain (GST-tagged). As to the kind of experiment: gcPBM binding intensity (ln(normalized median fluorescence intensity)); higher = stronger DNA binding. The essentials: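 Binding intensity is defined as the maximum Masliner-normalised natural-log median intensity across replicate spots for either probe orientation. It was measured on an Agilent 4 × 180k array of primer-extended double-stranded 36-bp intergenic genomic probes and negative controls, to which GST-tagged P. falciparum DNA-binding domains made in E. coli were applied for 1 h in 1× PBS with 1% milk, 0.2 mg/ml BSA, 0.5% salmon testes DNA and 0.03% Triton X-100. Detection was by Alexa488 anti-GST antibody and scanning at 488 nm.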
Take “TTTTTAATAAAATGATTGATAATTATTAAATTAAAA [CACACA_negctrl_site488]”: the “gcPBM binding intensity (ln)” value stood at 7.92 ± 0.36. For “TTGTGTTTGCGTAAATGTACGGAAAGACTTGAAGAC [XGTACX_site7235]” the value was 8.9 ± 0.49. For “TTGTTAGAGTATATTGAAAGGATAACCTTTTTTTAT [XGTACX_negctrl_site122]” the value was 8.32 ± 0.45; for “ACCATACATACATACACACACACACCCATATATATA [CACACA_site2917]”, 10.2 ± 0.26.

On to “TTTCATGTTTTAAAGTGTACATAAATATATTATATG [XGTACX_site3367]”, for which the “gcPBM binding intensity (ln)” value was 8.62 ± 0.42. As for “GGAAACACAATATATACACACATATATATATATATA [CACACA_site235]”, the “gcPBM binding intensity (ln)” value turned out to be 10.1 ± 0.021.

For the sequence “ACACTTAAATATTGTTGTACAAAATGATAAAATGTA [XGTACX_site4588]”, the “gcPBM binding intensity (ln)” value stood at 9.02 ± 0.45.

Consider “ATTTATATTATAATATGTACACAAAAAAAATTAGGA [XGTACX_site565]”, for which the “gcPBM binding intensity (ln)” value was 8.61 ± 0.38. Under “TTATATAACCCTCATGCATGCTAAGAAAAAAAAAAC [TGCATGCA_site936]” stands 8.72 ± 0.35; under “TTGATGTATACAATGTAGATTATTTAATATTTCAAT [GTGCAC_negctrl_site203]”, 8.48 ± 0.32; under “TAACATATCTTTAATACACACTTAAAAAAGTACTTA [CACACA_site4532]”, 8.48 ± 0.4. Under “AATAATATTGAAATGTGTACGTATTTATATTTTATG [XGTACX_site8252]” stands 8.88 ± 0.42.

For the sequence “TTTTGTTATATTCAATATTTATATATTATAAATATA [CACACA_negctrl_site1705]”, the “gcPBM binding intensity (ln)” value is 8.36 ± 0.38. For “TTTTTCTTTTTTACAGTGCATAAATATATGTATTGT [GTGCAC_site9399]” the value was 8.77 ± 0.38; for “TTGTGAATAACTAAGAAGAAAAAGATAAATATGTAT [TGCATGCA_negctrl_site388]”, 8.64 ± 0.58; for “TATTCATGCATATACACACACATATATTTATATTTT [CACACA_site7786]”, 9.26 ± 0.36. Consider “ACATATATATAATATATATTTTTCGTGTGGTGTCAC [CACACA_negctrl_site543]”, for which the “gcPBM binding intensity (ln)” value amounted to 8.84 ± 0.42. Take “GAGCACCAAAATATATGTACATATGATAAATGTGAA [XGTACX_site1130]”: the “gcPBM binding intensity (ln)” value was 8.96 ± 0.51. Under “AATATATATATAGGATGTACACATAATTCAAATATA [XGTACX_site2755]” stands 8.99 ± 0.43; under “ATCATTGAAGTTAAAAATATAAAGTATTCAGAAGGG [XGTACX_negctrl_site560]”, 8.73 ± 0.52. Consider “TTTTTTATTTTATTTTTTTCTGCTTATCCACATTAG [XGTACX_negctrl_site108]”, for which the “gcPBM binding intensity (ln)” value was found to be 8.52 ± 0.73. Under “TCACTTTTATAATATAATATTCTATATCTTATTTTT [GTGCAC_negctrl_site717]” stands 8.69 ± 0.59; under “AGCCATTATAATTCTTGTACATAATATAGCTATTTT [XGTACX_site1723]”, 9.03 ± 0.43; under “TATATAGTAATTTATTCACACAATTGGCACACCTCA [CACACA_site4679]”, 9.06 ± 0.57. Under “TATTTAAATTGTAAGTGTACATATATAAATGTAAAA [XGTACX_site1609]” stands 8.6 ± 0.45; under “TATAATATATATTTGTGTCCACAACATTTTTAATAT [XGTACX_site2089]”, 8.72 ± 0.49.

As for AATAAATTAAAACAGGTGCACTATATTACACACGCT, the “gcPBM binding intensity (ln)” value was determined as 9.36 ± 0.42.

For “TAGATACAGAAACACACACACACATACATATATACA [CACACA_site3437]”, the “gcPBM binding intensity (ln)” value amounted to 9.97 ± 0.24. Under “AGAATTATTGTTAATGCATGTGGAAGTTAAAATATT [TGCATGCA_site188]” stands 8.72 ± 0.41; under “TTATGGAGAGTTATATGTACGAAAAATATGTATAAG [XGTACX_site515]”, 8.62 ± 0.47. For “AATAATATATGGTGTACACAAAAGTATAAATAATTT [CACACA_site5338]” the value was 9.2 ± 0.51; for “TATAAAAAAATAATAAATAAATAAAAAGATTTCTTT [TGCATGCA_negctrl_site122]”, 8.26 ± 0.5; for “TAGATACATACACGCACACACATATATAAATAAATA [CACACA_site6157]”, 9.68 ± 0.35. As for “TAATTATGTACTATTATACACACGTTTAATTGTAAA [CACACA_site206]”, the “gcPBM binding intensity (ln)” value came out at 8.74 ± 0.42. Under “AAAAAAAACAGACACACACACATACACATACATACA [CACACA_site2857]” stands 10.2 ± 0.19; under “TTACGTATGTATTATGTTGTATATGAAATTAAAAAA [GTGCAC_negctrl_site292]”, 8.33 ± 0.57.

Consider “TAAAAAAATATATATACATGCATAGAAAAAAAAAAA [TGCATGCA_site552]”, for which the “gcPBM binding intensity (ln)” value was 8.75 ± 0.48. On to “ACACAAAAAATAAAAATATATATATATTATATATAT [CACACA_negctrl_site1489]”, for which the “gcPBM binding intensity (ln)” value stood at 8.81 ± 0.45. Under “TAATAATAAATTGGTTGTACAACCTTATACAGAATA [XGTACX_site2592]” stands 8.59 ± 0.42; under “TTTTAAACAAAAATTTGTACACAATAATTAAATATA [XGTACX_site6755]”, 8.32 ± 0.58. As for “ATTTAATTTTTTTTTTTTTTTTTTCAATCCCCTTTT [CACACA_negctrl_site1013]”, the “gcPBM binding intensity (ln)” value came to 8.32 ± 0.76. For “CATTTTAAAGAAAATACACACAAAAATAAATATATA [CACACA_site1395]” the value was 8.81 ± 0.49; for “TTTTTTTATTAAAAATGTACAAAAATGAAAAAATAA [XGTACX_site8279]”, 8.33 ± 0.45; for CATATAATTTTATGGGTGCATTTTTTTGTAAGACCA, 8.5 ± 0.48.

Source of the values: the supplement of paper PMC11417369.
